From PubChem BioAssay AID328 (DTP/NCI, 2004)
Values joined by “and” are separate entries in the source; they are usually repeats but may differ in a detail not shown here. Identical values can stand only once. The source gives many values for each of these; only a part stands here. Toxic doses and inconclusive results are not listed. How the source made its calls: active means survival T/C of 150% or more; inactive means T/C below 125% in these data.

Test system: BDF1 mice, P388 leukemia ip, median survival T/C
Test: NCI In Vivo Anticancer Drug Screen. Data for tumor model P388 Leukemia (intraperitoneal) in B6D2F1 (BDF1) mice
Details: endpoint: median survival time, higher = longer survival
Protocol: The antitumor activity of compounds was measured in mice bearing transplantable tumors. Survival or tumor size were measured and the results are expressed as the measurement made in the treated group (T) divided by the measurement made in the vehicle treated control group (C). The tumor model used in this assay is P388 Leukemia (intraperitoneal) in B6D2F1 (BDF1) mice

Measured: T/C

CC[C@]1(O)C[C@H]2CN(CCc3c([nH]c4ccccc34)[C@@](C(=O)OC)(c3cc4c(cc3OC)N(C=O)[C@H]3[C@@](O)(C(=O)OC)[C@H](OC(C)=O)[C@]5(CC)C=CCN6CC[C@]43[C@@H]65)C2)C1
active: dose: 0.06 mg/kg/injection, schedule: Q01DX009 (ip), vehicle: saline 220 % of control | dose: 0.06 mg/kg/injection, schedule: Q01DX010 (ip), vehicle: saline 190 % of control and 195 % of control (2×) | dose: 0.08 mg/kg/injection, schedule: Q01DX009 (ip), vehicle: clinical formulation 200 % of control | dose: 0.09 mg/kg/injection, schedule: Q01DX009 (ip), vehicle: saline 215 % of control | dose: 0.13 mg/kg/injection, schedule: Q01DX009 (ip), vehicle: saline 210 % of control | dose: 0.13 mg/kg/injection, schedule: Q01DX010 (ip), vehicle: saline 204 % of control and 209 % of control | dose: 0.14 mg/kg/injection, schedule: Q01DX009 (ip), vehicle: clinical formulation 213 % of control | dose: 0.14 mg/kg/injection, schedule: Q01DX009 (ip), vehicle: saline 222 % of control | dose: 0.22 mg/kg/injection, schedule: Q01DX009 (ip), vehicle: saline 200 % of control | dose: 0.24 mg/kg/injection, schedule: Q01DX009 (ip), vehicle: water 195 % of control | dose: 0.25 mg/kg/injection, schedule: Q04DX003 (ip), vehicle: saline 200 % of control | dose: 0.33 mg/kg/injection, schedule: Q01DX009 (ip), vehicle: saline 218 % of control | dose: 0.44 mg/kg/injection, schedule: Q04DX003 (ip), vehicle: saline 216 % of control | dose: 0.5 mg/kg/injection, schedule: Q04DX003 (ip), vehicle: saline 200 % of control and 210 % of control and 221 % of control | dose: 0.5 mg/kg/injection, schedule: Q04DX004 (ip), vehicle: saline 204 % of control | dose: 0.53 mg/kg/injection, schedule: Q04DX003 (ip), vehicle: clinical formulation 209 % of control | dose: 0.53 mg/kg/injection, schedule: Q04DX003 (ip), vehicle: saline 209 % of control | dose: 0.72 mg/kg/injection, schedule: Q04DX003 (ip), vehicle: saline 223 % of control | dose: 1.0 mg/kg/injection, schedule: Q01DX001 (ip), vehicle: saline 190 % of control | dose: 1.0 mg/kg/injection, schedule: Q04DX003 (ip), vehicle: water 186 % of control | dose: 1.65 mg/kg/injection, schedule: Q04DX003 (ip), vehicle: saline 197 % of control | dose: 2.0 mg/kg/injection, schedule: Q04DX003 (ip), vehicle: saline 215 % of control | dose: 15.6 micrograms/kg/injection, schedule: Q03HX024 (ip), vehicle: clinical formulation 200 % of control | dose: 31.2 micrograms/kg/injection, schedule: Q01DX009 (ip), vehicle: clinical formulation 190 % of control | dose: 31.2 micrograms/kg/injection, schedule: Q03HX016 (ip), vehicle: clinical formulation 204 % of control | dose: 31.2 micrograms/kg/injection, schedule: Q03HX024 (ip), vehicle: saline 205 % of control | dose: 62.0 micrograms/kg/injection, schedule: Q03HX008 (ip), vehicle: saline 210 % of control | dose: 62.5 micrograms/kg/injection, schedule: Q01DX009 (ip), vehicle: clinical formulation 200 % of control | dose: 62.5 micrograms/kg/injection, schedule: Q03HX008 (ip), vehicle: clinical formulation 195 % of control | dose: 62.5 micrograms/kg/injection, schedule: Q03HX024 (ip), vehicle: clinical formulation 204 % of control | dose: 75.0 micrograms/kg/injection, schedule: Q01DX009 (ip), vehicle: saline 195 % of control | dose: 125.0 micrograms/kg/injection, schedule: Q01DX009 (ip), vehicle: clinical formulation 214 % of control | dose: 125.0 micrograms/kg/injection, schedule: Q03HX008 (ip), vehicle: clinical formulation 200 % of control | dose: 125.0 micrograms/kg/injection, schedule: Q03HX008 (ip), vehicle: saline 205 % of control | dose: 125.0 micrograms/kg/injection, schedule: Q03HX024 (ip), vehicle: clinical formulation 223 % of control | dose: 150.0 micrograms/kg/injection, schedule: Q01DX009 (ip), vehicle: saline 210 % of control | dose: 250.0 micrograms/kg/injection, schedule: Q03HX008 (ip), vehicle: saline 220 % of control | dose: 250.0 micrograms/kg/injection, schedule: Q03HX016 (ip), vehicle: clinical formulation 219 % of control | dose: 250.0 micrograms/kg/injection, schedule: Q04DX003 (ip), vehicle: clinical formulation 200 % of control | dose: 250.0 micrograms/kg/injection, schedule: Q04DX003 (ip), vehicle: saline 192 % of control | dose: 300.0 micrograms/kg/injection, schedule: Q01DX009 (ip), vehicle: saline 220 % of control | dose: 324.0 micrograms/kg/injection, schedule: Q04DX003 (ip), vehicle: saline 198 % of control and 219 % of control | dose: 360.0 micrograms/kg/injection, schedule: Q04DX003 (ip), vehicle: saline 198 % of control and 213 % of control | dose: 389.0 micrograms/kg/injection, schedule: Q04DX003 (ip), vehicle: saline 216 % of control | dose: 432.0 micrograms/kg/injection, schedule: Q04DX003 (ip), vehicle: saline 189 % of control and 196 % of control | dose: 500.0 micrograms/kg/injection, schedule: Q03HX008 (ip), vehicle: saline 220 % of control | dose: 600.0 micrograms/kg/injection, schedule: Q04DX003 (ip), vehicle: saline 216 % of control | dose: 720.0 micrograms/kg/injection, schedule: Q04DX003 (ip), vehicle: saline 195 % of control | dose: 1000.0 micrograms/kg/injection, schedule: Q01DX001 (ip), vehicle: clinical formulation 223 % of control | dose: 1200.0 micrograms/kg/injection, schedule: Q04DX003 (ip), vehicle: saline 196 % of control | dose: 1670.0 micrograms/kg/injection, schedule: Q04DX003 (ip), vehicle: saline 213 % of control | dose: 2000.0 micrograms/kg/injection, schedule: Q01DX001 (ip), vehicle: clinical formulation 200 % of control
